Assay results reported in the supplement of paper PMC9151546.
Repeats are few or missing, and single values can be far off.

Legend:
CHO-K1 [1] = experiment: micronucleus frequency (% of nucleated events); higher = more micronuclei (genotoxic)
CHO-K1 [2] = experiment: hypodiploid nuclei frequency (% of nucleated events); higher = more hypodiploid events (aneugenic)
Experimental: (§1)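 Flow-cytometric in vitro micronucleus assay (Litron MicroFlow) in CHO-K1 cells in 96-well plates, 19 concentrations (4.5-200 µM, n=1 per concentration). Without S9, cells were exposed for 24 h and sampled at 48 h. With Aroclor 1254-induced rat liver S9, cells were exposed for 3-4 h and sampled at 27-28 h. Read-outs are %MN and %hypodiploid nuclei relative to nucleated events, and relative survival as the nuclei-to-bead ratio versus the 1% DMSO vehicle control (x100).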

CHO-K1 [3] = experiment: relative survival (nuclei to bead ratio vs DMSO control) (% of vehicle control); higher = more surviving cells
Experimental: as §1
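Wherever hypodiploid nuclei frequency (% of nucleated events) is given: hypodiploid nuclei gated on a flow cytometer with 488 nm excitation after SYTOX Green staining, cultures at 37 °C, positive controls vinblastine without S9 and cyclophosphamide with S9.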
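Wherever micronucleus frequency (% of nucleated events) is given: cells lysed with nuclei stained by SYTOX Green, then micronucleus-gated events counted against nucleated events by flow cytometry with 488 nm excitation.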
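Wherever relative survival (nuclei to bead ratio vs DMSO control) is given: Lysed-cell nuclei stained with SYTOX Green and counted against counting beads by flow cytometry at 488 nm excitation, with vinblastine (no S9) and cyclophosphamide (plus S9) as positive controls.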

Clc1ccccc1Cl [1,2-Dichlorobenzene]
Conditions	hypodiploid nuclei frequency, CHO-K1 [2] [%]	micronucleus frequency, CHO-K1 [1] [%]	relative survival, CHO-K1 [3]
concentration: 4.5 (µM), S9 metabolic activation: with S9, exposure time: 3-4 hours	0.28	2.1	150
concentration: 4.5 (µM), S9 metabolic activation: without S9, exposure time: 24 hours	0.72	1.52	111
concentration: 5.63 (µM), S9 metabolic activation: with S9, exposure time: 3-4 hours	0.16	1.74	163
concentration: 5.63 (µM), S9 metabolic activation: without S9, exposure time: 24 hours	0.56	2.12	116
concentration: 7.04 (µM), S9 metabolic activation: with S9, exposure time: 3-4 hours	0.32	1.26	156
concentration: 7.04 (µM), S9 metabolic activation: without S9, exposure time: 24 hours	0.58	1.96	104
concentration: 8.8 (µM), S9 metabolic activation: with S9, exposure time: 3-4 hours	0.2	1.38	183
concentration: 8.8 (µM), S9 metabolic activation: without S9, exposure time: 24 hours	0.62	1.74	133
concentration: 11 (µM), S9 metabolic activation: with S9, exposure time: 3-4 hours	0.28	1.24	150
concentration: 11 (µM), S9 metabolic activation: without S9, exposure time: 24 hours	0.58	2.26	114
concentration: 13.7 (µM), S9 metabolic activation: with S9, exposure time: 3-4 hours	0.22	1.48	124
concentration: 13.7 (µM), S9 metabolic activation: without S9, exposure time: 24 hours	0.78	1.9	111
concentration: 17.2 (µM), S9 metabolic activation: with S9, exposure time: 3-4 hours	0.3	1	120
concentration: 17.2 (µM), S9 metabolic activation: without S9, exposure time: 24 hours	0.8	1.92	104
concentration: 21.5 (µM), S9 metabolic activation: with S9, exposure time: 3-4 hours	0.16	1.22	146
concentration: 21.5 (µM), S9 metabolic activation: without S9, exposure time: 24 hours	0.66	1.7	119
concentration: 26.8 (µM), S9 metabolic activation: with S9, exposure time: 3-4 hours	0.26	1.2	152
concentration: 26.8 (µM), S9 metabolic activation: without S9, exposure time: 24 hours	0.54	1.74	99.3
concentration: 33.6 (µM), S9 metabolic activation: with S9, exposure time: 3-4 hours	0.16	1.06	154
concentration: 33.6 (µM), S9 metabolic activation: without S9, exposure time: 24 hours	0.64	2.1	117
concentration: 41.9 (µM), S9 metabolic activation: with S9, exposure time: 3-4 hours	0.2	1.58	160
concentration: 41.9 (µM), S9 metabolic activation: without S9, exposure time: 24 hours	0.76	1.96	137
concentration: 52.4 (µM), S9 metabolic activation: with S9, exposure time: 3-4 hours	0.36	1.94	162
concentration: 52.4 (µM), S9 metabolic activation: without S9, exposure time: 24 hours	0.98	2.26	112
concentration: 65.5 (µM), S9 metabolic activation: with S9, exposure time: 3-4 hours	0.14	1.58	141
concentration: 65.5 (µM), S9 metabolic activation: without S9, exposure time: 24 hours	0.56	2.64	94.9
concentration: 81.9 (µM), S9 metabolic activation: with S9, exposure time: 3-4 hours	0.3	1.68	184
concentration: 81.9 (µM), S9 metabolic activation: without S9, exposure time: 24 hours	0.96	2.04	121
concentration: 102 (µM), S9 metabolic activation: with S9, exposure time: 3-4 hours	0.28	1.34	128
concentration: 102 (µM), S9 metabolic activation: without S9, exposure time: 24 hours	0.74	1.94	129
concentration: 128 (µM), S9 metabolic activation: with S9, exposure time: 3-4 hours	0.2	1	169
concentration: 128 (µM), S9 metabolic activation: without S9, exposure time: 24 hours	1.22	2.24	109
concentration: 160 (µM), S9 metabolic activation: with S9, exposure time: 3-4 hours	0.3	1.54	132
concentration: 160 (µM), S9 metabolic activation: without S9, exposure time: 24 hours	0.72	1.86	95.4
concentration: 200 (µM), S9 metabolic activation: with S9, exposure time: 3-4 hours	0.14	1.36	131
concentration: 200 (µM), S9 metabolic activation: without S9, exposure time: 24 hours	1.14	2.56	81
